This is one part of the list. Many values rest on one well or one pass, so single values are uncertain.

The subject of the test is Candida albicans DPL-15. Put plainly: growth (OD600) after compound treatment (apparently relative to screen median) (relative growth (fraction; screen median 1.02)); DPL-15 is a caspofungin-resistant clinical isolate; higher = more fungal growth (less antifungal activity). The settings on record: 25 µM; RPMI 1640; 48 h; 30 °C.
As for `CC1(C)CNC(=O)C(O)CNC(=O)c2cccc(c2)-c2cc(n[nH]2)C1` (stereo not drawn), the growth was determined as 1.14. For `C=CCCCOS(=O)(=O)NC(C)(C)C`, the growth came to 1.06. Consider `COCCN1C(=S)NC(c2ccccc2)C(C(=O)OC)=C1C` (stereo not drawn), for which the growth was found to be 1.28.

Take `COc1cc(OC)cc([C@@H]2/C(=C\c3cc(C(C)(C)C)c(O)c(C(C)(C)C)c3)c3cc(OC)cc(OC)c3[C@H]2c2cc(C(C)(C)C)c(O)c(C(C)(C)C)c2)c1`: the growth turned out to be 1.21.

`O=c1c(OCc2ccoc2)c(-c2ccccc2)oc2ccccc12`: the growth came to 0.951. As for `CCOC(=O)C1CCCN(CCc2ccccc2)C1` (stereo not drawn), the growth was found to be 0.986.

As for `CC(C)[C@@H]1N=C2C[C@H](c3ccccc3)[C@@H](C)[C@@H]3C[C@@]2(O1)N(Cc1cccs1)C3=O`, the growth was found to be 0.906. For the compound `C=CCN1C(=O)C2=C(C(C)=NCCN2)C1c1ccc(F)cc1` (stereo not drawn), the growth is 0.956.

`COC(=O)C1=C(C)N(Cc2ccccc2)C(=S)NC1c1ccccc1` (stereo not drawn): the growth was 0.918. Regarding `CC(C)Cc1n[nH]c2c1C(c1cccc(Cl)c1)N(c1ccc(C(C)(C)C)cc1)C2=O` (stereo not drawn), the growth was 1.09. Regarding `CCc1ccccc1-n1nc(CC(C)C)c2c1C(=O)NC2c1ccccc1` (stereo not drawn), the growth worked out at 0.943. For `CC(C)C1=NCCNC2=C1C(c1cccc(C(F)(F)F)c1)N(Cc1ccccc1)C2=O` (stereo not drawn), the growth is 1.07.

Take `Cc1cccc(CO[C@H]2CC=C(c3ccccc3)O[C@@H]2CO)c1`: the growth was 0.846. Take `COC(=O)C/C=C/[C@H](C)[C@@H](NC(=O)[C@H](Cc1ccc(O)cc1)NC(=O)OC(C)(C)C)c1ccccc1`: the growth stood at 1.12. As for `COc1cc(O)c(C(=O)[C@@H]2CC=C(CCC=C(C)C)C[C@H]2c2ccccc2)c(O)c1`, the growth amounted to 0.979. On to `COc1ccc(-c2ccc3c(n2)CCCN3S(=O)(=O)c2ccc(F)cc2)cc1`, for which the growth turned out to be 0.875. For the compound `C=CCNC1=NC(c2cccc(Cl)c2)C(C(=O)OC)=C(C)N1C` (stereo not drawn), the growth was 0.873. With `CC(=O)C1=C2C=CCCN2C(=O)NC1c1ccccc1F` (stereo not drawn) the figure was 1.02; with `Cn1cc(Nc2cc(O)cc(O)c2C(=O)N2CC[C@@H](F)C2)cn1`, 1.06. In the case of `COc1cc(F)c(C2NC(=O)N3CCC=CC3=C2C(C)=O)cc1F` (stereo not drawn), the growth stood at 1.01. With `COc1ccc(S(=O)(=O)N[C@@H]2c3cc(OC)ccc3[C@H](c3ccccc3)[C@H]2C)cc1` the figure was 0.988. Consider `C[C@H]1/C=C/CC(=O)OC[C@@H]2OC(C)(C)O[C@@H]2C(=O)N[C@H]1c1ccccc1`, for which the growth turned out to be 1.09.

Take `CO[C@@H]1CCN(C(=O)c2c(O)cc(O)cc2Nc2cc(C)nn2C)C1`: the growth turned out to be 1.06.

As to `CC(C)c1nn(-c2ccc(OC(F)(F)F)cc2)c2c1C(c1ccc3c(c1)OCO3)NC2=O` (stereo not drawn), the growth turned out to be 0.927.

With `C=CC[C@]12C[C@@]3(O[C@H](C4CCNCC4)N=C3C[C@H](c3ccc(OC)cc3)[C@H]1C)N(Cc1ccccc1)C2=O`, the growth came to 0.785. With `COc1cccc([C@@H](NC(=O)C(F)(F)F)[C@@H]2CCCC=C2c2ccccc2)c1` the figure was 1.01; with `COC(=O)C/C=C/[C@H](C)[C@@H](NC(=O)[C@@H](Cc1c[nH]c2ccccc12)NC(=O)OC(C)(C)C)c1ccccc1`, 0.905. Turning to `COC(=O)C1=C(C)N(CCc2cccs2)C(NCc2cccc(C(F)(F)F)c2)=NC1c1ccccc1` (stereo not drawn), the growth was determined as 1.14. Take `COC(=O)C1=C(C)N(Cc2cccc(Cl)c2)C(=S)NC1c1cccc(Cl)c1` (stereo not drawn): the growth stood at 0.881.

For the compound `C=CCN1C(=O)C2=C(C(C(C)C)=NCCN2)C1c1ccc(F)cc1` (stereo not drawn), the growth was found to be 0.986.

In the case of `CO[C@@H]1[C@H](O)CC[C@]2(O)CN(c3c(C)noc3C)[C@](C)([C@H](O)CC=C(C)C)[C@@H]12`, the growth was 1.09. With `Cc1cc(O)c2c3c4c(cc(O)c13)O[C@@]1(c3ccc([N+](=O)[O-])cc3)O[C@H](C)C[C@H]1[C@H]4OC2=O` the figure was 0.98; with `CC(C)Cc1n[nH]c2c1C(c1ccc(F)cc1)N(c1ccc(C(=O)O)cc1)C2=O` (stereo not drawn), 0.977; with `CC1=NCCNC2=C1C(c1ccc(C)cc1)N(Cc1ccccc1)C2=O` (stereo not drawn), 0.993. In the case of `CC(=O)C1=C2C=CCCN2C(=O)NC1c1ccc(Cl)cc1` (stereo not drawn), the growth is 0.915. In the case of `CC1=C(C#N)C(c2ccccc2)NC(=O)N1` (stereo not drawn) it was 1.03; in that of `COc1c(F)cccc1C1NC(=O)N2CCC=CC2=C1C(C)=O` (stereo not drawn), 0.974; in that of `CC(C)Cc1n[nH]c2c1C(c1ccc(F)cc1)N(c1ccccn1)C2=O` (stereo not drawn), 1.06.

`CC(=O)OC[C@H]1O[C@H](C#Cc2ccccc2C(F)(F)F)C=C[C@@H]1OC(C)=O`: the growth was found to be 0.805. In the case of `CC(=O)C1=C(C)N(Cc2ccccc2)C(=S)NC1c1ccccc1Cl` (stereo not drawn), the growth is 0.941.

For the compound `C=CCN1C(=O)C2=C(C(c3ccccc3)=NCCN2C)C1c1ccc2c(c1)OCO2` (stereo not drawn), the growth is 1.02. In the case of `COC(=O)c1[nH]c2ccc(OC)cc2c1[C@]12CCN(C(=O)Cc3cccc(F)c3F)[C@H]1Nc1ccccc12` it was 1.15; in that of `O=S(=O)(NCC(F)(F)F)N(Cc1ccccc1)Cc1ccccc1`, 1.15; in that of `CN1CCN=C(c2ccccc2)C2=C1C(=O)NC2c1ccc2c(c1)OCO2` (stereo not drawn), 0.888. For the compound `CS(=O)(=O)Oc1c(C[C@@]23CCCCC2=Nc2ccc(Cl)cc23)occc1=O`, the growth was found to be 1.08.

For `COc1cc2c(cc1OC)CN(CCc1ccccc1)CC2`, the growth is 1.08. With `COC(=O)C/C=C/[C@H](C)[C@@H](NC(=O)[C@H](COCc1ccccc1)NC(=O)OC(C)(C)C)c1ccccc1` the figure was 0.966. For the compound `CCCCCCCc1cc(Cl)cc(Cl)n1`, the growth was 1.05. As for `COC(=O)NC(c1ccc2c(c1)OCO2)C(C(=O)OC)C(=O)OC` (stereo not drawn), the growth came out at 1.02. With `COC(=O)Cc1nnn2c1[C@@H](C)[C@@H](c1ccccc1Br)O[C@@H](C)C2`, the growth was determined as 0.969. As for `CO[C@@]1(c2ccc(Cl)cc2)Oc2ccc(Cl)cc2C(=O)[C@@]12OCC=C2C`, the growth is 0.741. With `CO[C@@H]1[C@H](O)CC[C@]2(O)CN(CCCN3CCCC3=O)[C@@H](CC=C(C)C)[C@](C)(O)[C@@H]12` the figure was 1.1. Regarding `COC(=O)c1cccc2cnnn12`, the growth was 1.28.

For the origin of these results see the supplement of paper PMC10986608.
